# Test results: the supplement of paper PMC10126150
# Values marked as one replicate rest on one cluster of the flow cell; about a third of the high ones do not repeat.
# Tested on: ATP
# Experiment: switch fluorescence ratio, 500 uM ATP over buffer (Cy3 cluster intensity, sum of 5 cycles each) (fold (ratio)); higher = stronger signal-on switching upon ATP binding; sequences stand for … in TCGTCGGCAGCGTCAGATGTGTATAAGAGACAGTTTTTTTTTTTTTTTTTTTTTTTTT…TC
# Details: aptamer strand: ATP DNA aptamer (quencher-CACCTGGGGGAGTATTGCGGAGGAAGG + anchor), 100 nM annealed; ATP concentration: 500 uM; one replicate
# Procedure, shortened: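 Between each of five buffer/ATP cycles, the flow-cell was stripped with NaOH and re-annealed. Each cycle imaged Cy3-labelled switching-strand clusters, annealed to 100 nM quencher-labelled ATP aptamer on a modified Illumina MiSeq flow-cell, first in selection buffer and then after 15 min with 500 uM ATP at 22 °C. The fluorescence ratio is summed target-cycle over summed buffer-cycle Cy3 intensity per cluster, averaged per switch-domain sequence, with clusters outside 100-1000 RFU excluded.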
# 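Note: ATP exposure 15 min at 22 °C before imaging.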
row,Sequence,switch fluorescence ratio
1,ATGCGGGAGC,0.989
2,ATGCGTTAGG,0.997
3,ATGCGTTATT,0.981
4,ATGCTAACTT,1.06
5,ATGCTAAGGA,0.995
6,ATGCTAGAGG,0.994
7,ATGCTCTGAT,0.975
8,ATGCTTAAGG,0.98
9,ATGCTTGTCC,0.994
10,ATGCTTGTGT,1.04
11,ATGGAAATAA,1
12,ATGGAATACC,1.07
13,ATGGACAAGC,1.05
14,ATGGACCTAG,0.972
15,ATGGACGAGA,1.03
16,ATGGACGCTG,0.954
17,ATGGACTCAG,1.06
18,ATGGACTTCT,1.01
19,ATGGAGTCCA,0.983
20,ATGGATCACG,1.04
21,ATGGATGTAC,0.973
22,ATGGCACATG,0.994
23,ATGGCACGAG,0.981
24,ATGGCCACTG,1.03
25,ATGGCCGCAA,4.76

row,Sequence,switch fluorescence ratio
1,ATGGCCTAAT,1.07
2,ATGGCGCACA,1.02
3,ATGGCTGCGT,0.952
4,ATGGCTGGCC,1.04
5,ATGGCTTGAT,0.989
6,ATGGGAGCGG,1
7,ATGGGCAGT,0.993
8,ATGGGCCGAA,0.94
9,ATGGGCGTC,1.01
10,ATGGGGAACA,1.02
11,ATGGGGAGCC,1.01
12,ATGGGGTGAC,0.986
13,ATGGGGTTGC,0.998
14,ATGGGTCGAT,1.04
15,ATGGGTGCTA,0.955
16,ATGGGTGGCA,0.958
17,ATGGTACAGT,0.995
18,ATGGTACGTA,0.98
19,ATGGTAGGAA,0.974
20,ATGGTAGTTC,1.02
21,ATGGTATCC,1.01
22,ATGGTATGTA,1
23,ATGGTCATAC,1.07
24,ATGGTCCGCG,1.08
25,ATGGTCTCAG,0.966

row,Sequence,switch fluorescence ratio
1,ATGGTGAACT,1.01
2,ATGGTGAGTC,0.969
3,ATGGTGCTTC,0.952
4,ATGGTGGACG,1.04
5,ATGGTTAACG,0.992
6,ATGGTTATAG,1.03
7,ATGGTTATCG,0.981
8,ATGGTTCCGT,0.948
9,ATGGTTGGAT,0.979
10,ATGGTTGTGG,1.01
11,ATGGTTTCCT,0.986
12,ATGGTTTTTC,1.04
13,ATGTAAAGGG,1.03
14,ATGTAAATCA,0.953
15,ATGTAAGATA,0.975
16,ATGTAAGCC,0.99
17,ATGTACTCGA,1.05
18,ATGTAGCGG,1.02
19,ATGTATATAC,1.02
20,ATGTATGGTG,0.987
21,ATGTATTTCA,0.988
22,ATGTCACGCC,1.1
23,ATGTCAGAGC,1.01
24,ATGTCATAGG,0.992
25,ATGTCCTCGG,0.998

row,Sequence,switch fluorescence ratio
1,ATGTCCTTAG,1.02
2,ATGTCCTTTC,1.23
3,ATGTCTTTAG,0.981
4,ATGTGCCAAA,1.01
5,ATGTGCTAAT,1
6,ATGTGGAAGC,1.01
7,ATGTTACGGT,1.07
8,ATGTTACTGG,1.02
9,ATGTTCCGTT,1.01
10,ATGTTCTTCC,1.74
11,ATGTTGCGGA,0.99
12,ATGTTGTGCG,0.976
13,ATGTTTAAGG,0.943
14,ATGTTTGCCC,0.993
15,ATTAAACCGC,1.19
16,ATTAAATGTG,0.972
17,ATTAAGCGCC,0.989
18,ATTAAGGGCC,1
19,ATTAAGGTTG,0.996
20,ATTAATGAAT,1
21,ATTAATGAGC,1
22,ATTAATTCAA,1
23,ATTAATTCTT,0.932
24,ATTACAATA,1.1
25,ATTACACGTA,1.17
